Laboratory results: paper PMC7819943, “Rice protein-binding microarrays: a tool to detect cis-acting elements near promoter regions in rice”
The other results are listed elsewhere or left out.

Each sequence was assayed against T1, OsWOX13 (Oryza sativa, UniProt Q5QMM3 1-267) (assay: protein-binding microarray (RPBM); PBS, 2% BSA, 51.3 ng/ul salmon testes DNA, 50 uM zinc acetate, 200 nM TF, 25 C, 1 h; high values mean tight binding). Conditions: protein: recombinant; tags: N-terminal polyhistidine and DsRed monomer fusion (pET32a); label: CyDye5-dUTP incorporated in the synthesized complementary strand; 3' TTTTT single-stranded linker to array surface; dsDNA, one strand shown.
T1 sequence: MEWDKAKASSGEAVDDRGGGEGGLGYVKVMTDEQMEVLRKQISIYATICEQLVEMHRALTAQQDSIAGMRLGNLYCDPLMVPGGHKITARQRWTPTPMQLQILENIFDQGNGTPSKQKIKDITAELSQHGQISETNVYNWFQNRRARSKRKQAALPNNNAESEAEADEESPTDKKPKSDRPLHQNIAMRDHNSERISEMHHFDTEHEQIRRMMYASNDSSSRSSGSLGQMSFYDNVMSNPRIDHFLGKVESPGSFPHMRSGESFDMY
Method in brief: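 Per-feature fluorescence intensity (arbitrary units), read on an Axon 4000B scanner, is the binding signal. Transcription factors carrying an N-terminal polyhistidine tag and DsRed fusion were expressed in E. coli BL21-CodonPlus and purified on Ni–NTA. A custom Agilent array, made double-stranded by primer extension with Cy5-dUTP and blocked with 2% BSA, was incubated with 200 nM protein in PBS, 2% BSA, salmon testes DNA and 50 µM zinc acetate at 25 °C for 1 h and then washed.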

Sequence	binding signal
AGGTTATGATTGCGCGAAGCCGTGACTTAGATAGCTAGTTCGGAGTCACCTAGTGCAG	17200 fluorescence intensity (a.u.)
AACTCAATTAGTCTTAATGAATTTGTCGTTTTGCATGCCGCGGAGTCACCTAGTGCAG	17800 fluorescence intensity (a.u.)
GATAATTTCATTTATGAGAAAGGCCAAATCCCTTATAGCTCGGAGTCACCTAGTGCAG	11000 fluorescence intensity (a.u.)
TGCTAATTGGGGATTTTCACATTCATGCTGTGTTAGCAGGCGGAGTCACCTAGTGCAG	54700 fluorescence intensity (a.u.)
CAATCAATCAGTCAAGCAATCCGGCGTTACAGCTGGCTCGCGGAGTCACCTAGTGCAG	34200 fluorescence intensity (a.u.)
CAATTAACTTAACTTGAGTGTTTATGCATTCGTGATGATGCGGAGTCACCTAGTGCAG	6830 fluorescence intensity (a.u.)
ACGAGCTAGATTATAGTACTAATTACTTGAGGATTCGGTTCGGAGTCACCTAGTGCAG	5230 fluorescence intensity (a.u.)
CTCACCTTCTCATCTCAATCAACAGTTGAGAGGACAACTGCGGAGTCACCTAGTGCAG	5530 fluorescence intensity (a.u.)
GAAAATCAATCAGTTGAATTAATCAGTCATGCCAAGAGTCCGGAGTCACCTAGTGCAG	27800 fluorescence intensity (a.u.)
CTATAAATTTTCATCATGTATGAACCTGGCTCTTATCAAACGGAGTCACCTAGTGCAG	3860 fluorescence intensity (a.u.)
AACCAATCACAACCCTCCACCATTCGCTTTTCCCACCTAACGGAGTCACCTAGTGCAG	18000 fluorescence intensity (a.u.)
GTTACTGTGATTTGTTTCACGAAGCCCCATGTTTTGAGCCCGGAGTCACCTAGTGCAG	11700 fluorescence intensity (a.u.)
GACAAATTATCTCCAAATCCCCGCAAAATTCACTGCTCCACGGAGTCACCTAGTGCAG	15400 fluorescence intensity (a.u.)
GAAATGAGCTATAATTGTTAAACTAGGTGAGGACACCCACCGGAGTCACCTAGTGCAG	7630 fluorescence intensity (a.u.)
CCCACATGCCAGACTGATTGCCAGTCATGAGCAAGGGTCCCGGAGTCACCTAGTGCAG	23900 fluorescence intensity (a.u.)
TGCCAGTAATTGTGACGTGACAAGATGCAGGCGTGGTGTGCGGAGTCACCTAGTGCAG	29600 fluorescence intensity (a.u.)
ATCAAACTGACTGGCACGCCCGCATCTCACCAATCTTTGGCGGAGTCACCTAGTGCAG	13300 fluorescence intensity (a.u.)
ATTTGAATTTAAATTTGAATCGGATATGTAAACTTGTGACCGGAGTCACCTAGTGCAG	12000 fluorescence intensity (a.u.)
TTGGTGAGTTGACAGAAATTTGTATCATCTTAAAATGAGCCGGAGTCACCTAGTGCAG	4960 ± 898 fluorescence intensity (a.u.)
AACAAATTTCATTATATGTCACTCAATTCGCACTCCATTTCGGAGTCACCTAGTGCAG	5130 fluorescence intensity (a.u.)
ATTGACAGCCACACGATCCGTCACCAAACCTCACGTTTTACGGAGTCACCTAGTGCAG	6620 fluorescence intensity (a.u.)

Sequence	binding signal
CTAGTTAAAGTTTGATTTGTTATTTTCGTTACAACTTGTACGGAGTCACCTAGTGCAG	4370 fluorescence intensity (a.u.)
AGCTCTATGATTTTACAATTTAAAATTATATTATATAAAGCGGAGTCACCTAGTGCAG	15800 fluorescence intensity (a.u.)
GGTGGATGTGATCGATCACTAAATTAAACCCAGAAACACACGGAGTCACCTAGTGCAG	3630 fluorescence intensity (a.u.)
CAGATAATGGGTAATTCAAATGACCAATCCGAATAGCAACCGGAGTCACCTAGTGCAG	11800 fluorescence intensity (a.u.)
TCCTGAAAATAATTGGAAAACCATTTTCACTCATGTTTCCCGGAGTCACCTAGTGCAG	10700 fluorescence intensity (a.u.)
AGTTTAAATCCCTAAATAGATTATGGCCTTATGGGCTTCACGGAGTCACCTAGTGCAG	3440 fluorescence intensity (a.u.)
TGTATTTGATTGAAACTGTTCATACTATAAACATGCTGGGCGGAGTCACCTAGTGCAG	57900 fluorescence intensity (a.u.)
AAATTGATTGGGGATAAATCTCAAAATTAAGATGAATGAGCGGAGTCACCTAGTGCAG	51700 fluorescence intensity (a.u.)
ATTTTCTAGGATGATTTGTTGATGGATTTGTGATTTCGTGCGGAGTCACCTAGTGCAG	20700 fluorescence intensity (a.u.)
ATTAAATCAATAATTAAATATATTTTCATAATAAATTTGTCGGAGTCACCTAGTGCAG	23400 fluorescence intensity (a.u.)
AGAAGATTAACCGTTAAACCGTTTTATCAGCCATGGGATGCGGAGTCACCTAGTGCAG	11400 fluorescence intensity (a.u.)
ACTAATTAAGCTTGGAGAGTCCAGCTGGCCGGAAGGTGTTCGGAGTCACCTAGTGCAG	9160 fluorescence intensity (a.u.)
TAATTCCCAATCAATTAAACGAGACGAGTCATTAGCAAGCCGGAGTCACCTAGTGCAG	27800 fluorescence intensity (a.u.)
TATTTTAATTTTATTATTATTATATGGTTTAGTTAAGATGCGGAGTCACCTAGTGCAG	4950 fluorescence intensity (a.u.)
CGCGAGGACAAAGCCAATCAATCTGCTGCCTACTGCGATTCGGAGTCACCTAGTGCAG	6900 fluorescence intensity (a.u.)
CCTCTTTTGATAGATTCAATTCAAATGGCGGAGGACATTGCGGAGTCACCTAGTGCAG	14000 fluorescence intensity (a.u.)
AGGTGACAGAAATTGGTCGGTTCCGTGAAAACCAGACTTTCGGAGTCACCTAGTGCAG	8960 fluorescence intensity (a.u.)
TATCTTCACCGTGGGTGATTGGGTGTTCCTTAAGCTCCAACGGAGTCACCTAGTGCAG	5920 fluorescence intensity (a.u.)
ATTTAAATTTTAAATTTTAATAATCGGTGATTTTGTACAGCGGAGTCACCTAGTGCAG	24700 fluorescence intensity (a.u.)
AGGTTGATTAGAAAAGGATGACCTGACTAGCACCCTCATTCGGAGTCACCTAGTGCAG	35800 fluorescence intensity (a.u.)
CGCATGATTGAGAAAACATAGGATTTGGATAGGAATGCAACGGAGTCACCTAGTGCAG	30800 fluorescence intensity (a.u.)
